We go through one substance from PMC3156899 (Clinical cancer research : an official journal of the …, 2011).

The subject of this experiment is CD4+ T cells from DP4+ CMV Ab+ healthy donors. The class given is cell-based, human.

For the substance 221DQYVKVYLESFCEDVPSGKL240 [pp65#23], the “donors from whom peptide-specific CD4+ T cells were generated” value (DP4-aAPC pulsed with pp65#23 peptide, DP4+ CMV Ab+ donors) was “all five”. Also, the “time peptide-specific CD4+ T cells were maintained in culture” value (without allogeneic feeder cells or T cell cloning, Figure 3A) was “greater than 50 days”.
